Experimental data as given in patent US20230192887A1 (published 2023).

Assays:
[1] = molecular target: T1, recombinant human TfR apical domain (human); experiment: SPR (Biacore T200 or 8K); protein captured on anti-human Fab chip, recombinant human TfR apical domain as analyte; 1:1 Langmuir fit
T1 construct: also called transferrin receptor protein 1 apical domain
Procedure: Affinities of the bispecific proteins were measured by SPR using a Biacore T200 or a Biacore 8K. Biacore™ Series S CM5 sensor chips were immobilized with monoclonal mouse anti-human IgG (Fc) antibody for HER2 affinity measurements or mouse anti-human Fab for TfR affinity measurements (human antibody or Fab capture kit from GE Healthcare). Serial 3-fold dilutions of analyte (recombinant HER2 extracellular domain or recombinant TfR apical domain) were injected at a flow rate of 30 μL/min. Each sample was analyzed using a 3-minute association and a 10-minute dissociation for HER2 extracellular domain binding and a 40-second association and a 3-minute dissociation for human TfR apical domain binding. After each injection, the chip was regenerated using 3 M MgCl₂ or 50 mM glycine at pH 2.0. Binding response was corrected by subtracting the RU from a flow cell capturing an irrelevant IgG at similar density. A 1:1 Languir model of simultaneous fitting of kon and koff was used for kinetics analysis. […] The two constructs are described below.

[2] = molecular target: HER2 on HER2^+ tumor cell lines (BT474, OE19, ZR75) (UniProt P04626); experiment: cell-based or functional assay

Kd [1]: 490 nM
IC50 (nM), BT474 + NRG1 [2]: 5.1 nM
IC50 (nM), BT-474 [2]: 0.61 nM
IC50 (nM), OE19 [2]: 0.86 nM
B1: Bispecific Protein #6 (bispecific antibody, human IgG1, kappa)
heavy 1: EVQLVESGGGLVQPGGSLRLSCAASGFTFTDYTMDWVRQAPGKGLEWVADVNPNSGGSIYNQRFKGRFTLSVDRSKNTLYLQMNSLRAEDTAVYYCARNLGPSFYFDYWGQGTLVTVSSASTKGPSVF[in this place about 250 residues][in this place about 200 residues]
heavy 2: EVQLVESGGGLVQPGGSLRLSCAASGFTFTDYTMDWVRQAPGKGLEWVADVNPNSGGSIYNQRFKGRFTLSVDRSKNTLYLQMNSLRAEDTAVYYCARNLGPSFYFDYWGQGTLVTVSSASTKGPSVF[in this place about 450 residues with a human IgG1 Fc]
light: DIQMTQSPSSLSASVGDRVTITCKASQDVSIGVAWYQQKPGKAPKLLIYSASYRYTGVPSRFSGSGSGTDFTLTISSLQPEDFATYYCQQYYIYPYTFGQGTKVEIKRTVAAPSVF[in this place about 200 residues]
Min Cell viability (%), BT474 + NRG1 [2]: 40%
Min Cell viability (%), BT-474 [2]: 26%
Min Cell viability (%), OE19 [2]: 42%
Min Cell viability (%), ZR75-30 [2]: 85%
